From PMC4242493 come the findings set out here.

Some of the results follow. The list includes weakly bound sequences.

For the assay, the target named is MaxL homodimer (UniProt P61244). Nature of the assay: universal protein-binding microarray (PBM). The settings on record: PBS-based mixture, 10 nM His-tagged protein dimer, 2% milk, 200 ng/uL BSA, 50 ng/uL salmon testes DNA, 0.02% TX-100; detection with Alexa 488 anti-His …; high values mean tight binding; most listed sequences are background and not binding sites; double strand, one strand shown.
Sequence of UniProt P61244 (P61244 whole entry): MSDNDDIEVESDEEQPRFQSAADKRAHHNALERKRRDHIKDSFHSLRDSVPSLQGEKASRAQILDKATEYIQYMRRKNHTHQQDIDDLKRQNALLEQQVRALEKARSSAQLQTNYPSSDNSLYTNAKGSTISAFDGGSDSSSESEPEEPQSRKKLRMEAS
On to ATAGCATG, for which the binding signal (normalized occupancy) was 0.103.

Consider TCCCGAGA, for which the binding signal (normalized occupancy) came to 0.0677.

Regarding AGCGCCCG, the binding signal (normalized occupancy) amounted to 0.0657. In the case of GACTCGGA it was 0.068; in that of CGACCGAG, 0.0707; in that of CAAGCTAG, 0.0691. As for ACTACGTG, the figure is 0.0807; as for GACGCCAA, 0.0691; as for GAATGATC, 0.0757. As for ACATTTCT, the figure is 0.078; as for CAACTAAC, 0.0767; as for AAAACCCA, 0.0746. As to AGCTACCC, the binding signal (normalized occupancy) was 0.0712.

For the sequence GGTGTAGA, the binding signal (normalized occupancy) amounted to 0.0796. As for ATAGGTCG, the figure is 0.0731; as for CACTTGGC, 0.0731; as for AATTCAAA, 0.0767. As to CATGTAAC, the binding signal (normalized occupancy) came out at 0.0941. In the case of ACTCACGA it was 0.0776; in that of GCCTGTCA, 0.0734. In the case of CTTGACTC it was 0.0726; in that of CGTCGTCA, 0.0742; in that of CTATATCA, 0.0879. Take ACTGACTG: the binding signal (normalized occupancy) was 0.0723. As for CAGTGACG, the figure is 0.0728. As for AACATGCC, the figure is 0.089; as for ATCAACAT, 0.0891. With CAGTAGTC, the binding signal (normalized occupancy) came out at 0.0718.

ACCGAACA: the binding signal (normalized occupancy) is 0.0747. As for GGTTGCAC, the binding signal (normalized occupancy) was 0.0731.

Take CTCAGATC: the binding signal (normalized occupancy) was 0.0734. For GCTGTTAA, the binding signal (normalized occupancy) was found to be 0.077.

With AATAAAGC, the binding signal (normalized occupancy) was 0.0758.

In the case of CGGCGAAC, the binding signal (normalized occupancy) amounted to 0.0718. As for ACGGACAA, the figure is 0.0773; as for CGCAACTC, 0.0673. Take GCCTGTAC: the binding signal (normalized occupancy) was found to be 0.0712. Take AAGTACCG: the binding signal (normalized occupancy) was found to be 0.0718. As for CAGAACGC, the figure is 0.07; as for CGGGTTTC, 0.0787; as for ACCTACCA, 0.0725.

Turning to ACAGGCCC, the binding signal (normalized occupancy) turned out to be 0.073. CAGCAGAC: the binding signal (normalized occupancy) came out at 0.0696.

As to GTCGATAA, the binding signal (normalized occupancy) was found to be 0.0777. In the case of GGTGCACA it was 0.078; in that of GCGCCGCC, 0.0666; in that of ACGCCACG, 0.0993. As for AAATGTGT, the figure is 0.0811; as for ACTCCACG, 0.087. Regarding CTAGTTTA, the binding signal (normalized occupancy) turned out to be 0.0713. In the case of GTTGATGA it was 0.0756; in that of AGGAACAT, 0.0776. In the case of GAAACTGA it was 0.0693; in that of GCCTCAAC, 0.071; in that of CACTTAGA, 0.0744. As for AGAGCGCT, the binding signal (normalized occupancy) stood at 0.0684. With GCGCGCGA, the binding signal (normalized occupancy) turned out to be 0.075. With CCCGATCG, the binding signal (normalized occupancy) was determined as 0.0727.

On to AGCGGCTC, for which the binding signal (normalized occupancy) came out at 0.0687. In the case of CACAACAG, the binding signal (normalized occupancy) stood at 0.0759. AGTCCAGA: the binding signal (normalized occupancy) stood at 0.0677. In the case of CTGTAAGA it was 0.0739. With CCTATGGA, the binding signal (normalized occupancy) was 0.0763. As for CTGTTGTA, the figure is 0.0736; as for AGCGAATA, 0.0765. As for CGGTGTAG, the binding signal (normalized occupancy) was 0.0813. As for CCAAGTAG, the figure is 0.0701. In the case of CTTCGGGA it was 0.0664; in that of ACCGACGA, 0.076; in that of CAATGTAG, 0.0752. Take GAAATTCC: the binding signal (normalized occupancy) worked out at 0.071.

For AGACGCCG, the binding signal (normalized occupancy) is 0.0686. As to AGATGAAG, the binding signal (normalized occupancy) amounted to 0.0748. As for AGGGCAAT, the figure is 0.0741. In the case of ACGCCAAA it was 0.0716; in that of ACTAGGAC, 0.0705; in that of GCCTGTCC, 0.0705. Consider AAACTCGA, for which the binding signal (normalized occupancy) is 0.0712.

Consider CGACCCGC, for which the binding signal (normalized occupancy) was found to be 0.0737. As for TAATAAAA, the figure is 0.0775; as for ATAGCAGC, 0.074. Take CAACGGCA: the binding signal (normalized occupancy) was 0.073.

Consider TAATGCCA, for which the binding signal (normalized occupancy) worked out at 0.0764.

For TCCAGAAA, the binding signal (normalized occupancy) was 0.0716. CGCCATTC: the binding signal (normalized occupancy) was 0.0761.

As to CCAAACGC, the binding signal (normalized occupancy) turned out to be 0.073.

GGGCGTAA: the binding signal (normalized occupancy) was found to be 0.0785.

With ATTTGGCC, the binding signal (normalized occupancy) is 0.0744. In the case of CAGAGTTC it was 0.0676; in that of TCCTGGCA, 0.0724; in that of GGAACGCC, 0.0729. As for ACCGCCGG, the figure is 0.0692. Take ACCGGGAA: the binding signal (normalized occupancy) was 0.0746. As for AGAGATCT, the figure is 0.0762; as for CAATACCA, 0.0823; as for CCTTCCCA, 0.0748. In the case of CGGCACGC it was 0.0851; in that of TGATGGAA, 0.0835. Turning to GTATCGCA, the binding signal (normalized occupancy) worked out at 0.0739.

Regarding ATGCAGGA, the binding signal (normalized occupancy) is 0.0793. In the case of GGATTGCA it was 0.0751. In the case of TCACATAA it was 0.0812; in that of CCAAGATC, 0.0712; in that of AGGGGCGC, 0.0731. In the case of ACCTCCCA it was 0.0834; in that of CGACCTCA, 0.0854. Regarding ACCTCCCT, the binding signal (normalized occupancy) came to 0.0732. In the case of CTGAATAA it was 0.0766. As for CGAAGCAA, the figure is 0.0734; as for GAAACGGA, 0.0715; as for CACCGTGA, 0.0822. In the case of TAACGGGA it was 0.0763; in that of ACTTAGAC, 0.0725. TCACTACA: the binding signal (normalized occupancy) amounted to 0.0758.

As for AACATAGG, the binding signal (normalized occupancy) was 0.0799.

For ATTGGTGC, the binding signal (normalized occupancy) was found to be 0.0699. Consider TCATCGCA, for which the binding signal (normalized occupancy) was determined as 0.0775. AAATTGGA: the binding signal (normalized occupancy) amounted to 0.0736.

GCAGGCAC: the binding signal (normalized occupancy) came out at 0.0718. In the case of CTGCCTGA it was 0.0745; in that of TCAGCCGA, 0.0691. Regarding ATGGAGTC, the binding signal (normalized occupancy) is 0.0808.

Turning to CTTACAAG, the binding signal (normalized occupancy) turned out to be 0.0751. Consider CTACAAGC, for which the binding signal (normalized occupancy) came to 0.0715. As for GCAGTCAC, the figure is 0.0758; as for ATGGCGTC, 0.077.

In the case of CAGTCTTC, the binding signal (normalized occupancy) came to 0.0712. As for ATGTTACG, the figure is 0.0818; as for CTGTCCCA, 0.0819; as for CGGAAGCC, 0.0624. In the case of CAGACGGA it was 0.0682. For the sequence ACGACTTA, the binding signal (normalized occupancy) worked out at 0.0774. In the case of ATTGACCA it was 0.0826. As for TACAGCGA, the figure is 0.0766.

In the case of ATTACCCG, the binding signal (normalized occupancy) came out at 0.0805. In the case of AGACTCCC it was 0.072; in that of GCCTCGAA, 0.0679.

Turning to TACAGTCA, the binding signal (normalized occupancy) turned out to be 0.082.

As to ACCTCTTG, the binding signal (normalized occupancy) turned out to be 0.0707. Consider ACTGCCCG, for which the binding signal (normalized occupancy) came to 0.0714. ATGTACAA: the binding signal (normalized occupancy) amounted to 0.0815.

For CCAAGACC, the binding signal (normalized occupancy) is 0.0699. As for CTCCTACC, the figure is 0.0735; as for ATTAGTAC, 0.0786; as for AGTCGCAA, 0.0744. In the case of AAATAATG it was 0.0782.

Consider AAGCGAAA, for which the binding signal (normalized occupancy) was 0.0696. As for ACACAAGT, the figure is 0.0788. As to TATCCTCA, the binding signal (normalized occupancy) was found to be 0.0868. In the case of ACGTTGAG it was 0.0783; in that of AGTTTTGC, 0.0702. In the case of ATGCTACG it was 0.086. As for TAACTCGA, the figure is 0.0775. Turning to GAAATTAA, the binding signal (normalized occupancy) was determined as 0.0782. Take ACCATGAT: the binding signal (normalized occupancy) was 0.084. As for CGTCCAAC, the figure is 0.0717; as for AAACCCAT, 0.0794; as for CATACCTA, 0.0793. In the case of AAGTGAAA it was 0.0707.

For the sequence AAACCATG, the binding signal (normalized occupancy) was 0.0886.

Consider ACGACGAG, for which the binding signal (normalized occupancy) came to 0.0759. In the case of GCATGTAA it was 0.0836; in that of GTGGTCTA, 0.0734; in that of AGCTCTTG, 0.071.

Regarding ATCTTCTC, the binding signal (normalized occupancy) was 0.0795.

For CGCCGGGC, the binding signal (normalized occupancy) was found to be 0.0692. As for GATGGCAA, the figure is 0.0752; as for CGCGTAGA, 0.072; as for GGAAGTCC, 0.0697. In the case of ATCATCAT it was 0.0851; in that of CACGAAGA, 0.0779; in that of TGTAACAA, 0.0771. With ATGAGCCG, the binding signal (normalized occupancy) was determined as 0.076. AGTCACTG: the binding signal (normalized occupancy) came out at 0.0725. In the case of CCTGTCGC it was 0.0739; in that of GAACTCCA, 0.0784. For the sequence CACACGTA, the binding signal (normalized occupancy) was found to be 0.0925. AAAGATGA: the binding signal (normalized occupancy) came out at 0.077. As for CCAAACCC, the figure is 0.0843. Turning to GGCCAACA, the binding signal (normalized occupancy) is 0.076. As for GCCCTCGA, the figure is 0.0765; as for ACGGGAGA, 0.0709. In the case of AATAAGCT it was 0.071. As for GAGTGCAA, the binding signal (normalized occupancy) is 0.0744. For AAGGCCTG, the binding signal (normalized occupancy) was found to be 0.0683.

For the sequence AATATGCG, the binding signal (normalized occupancy) was 0.0761. In the case of CCGCTGAA it was 0.0661; in that of CTCGGAGC, 0.0683; in that of AAATTCAT, 0.0768.

On to GACGCTTA, for which the binding signal (normalized occupancy) came out at 0.0768.

Take GGAGGCTA: the binding signal (normalized occupancy) is 0.0697. On to CAAGGGGA, for which the binding signal (normalized occupancy) was 0.0766.

For the sequence ATTTGGTA, the binding signal (normalized occupancy) is 0.0708.

With CCTGGACC, the binding signal (normalized occupancy) came to 0.0723. As for CTAAGTAA, the figure is 0.0727; as for ACTTGCGA, 0.0744. As for CTTGATCC, the figure is 0.0766; as for CAAGGAAA, 0.0736. As for AATGTTAC, the figure is 0.0779. For the sequence ACGTCCTG, the binding signal (normalized occupancy) came to 0.0703. As for GTCGTGAA, the figure is 0.0758.

For the sequence TCCGTCAA, the binding signal (normalized occupancy) was 0.0696. With CGCCAAAC, the binding signal (normalized occupancy) was 0.0725. As for CTCATATC, the figure is 0.0798.

For the sequence CACTAAAA, the binding signal (normalized occupancy) stood at 0.0821. In the case of AAACAAGA it was 0.0748; in that of CGAAACAC, 0.0785; in that of CAAGGGAG, 0.0718. As to AAACTTAA, the binding signal (normalized occupancy) worked out at 0.0725. Consider AAGTCCCG, for which the binding signal (normalized occupancy) was determined as 0.0706. As for CTCGGAAG, the figure is 0.0704.

As for GCGGCCGA, the binding signal (normalized occupancy) came to 0.0676. GAGAAGCC: the binding signal (normalized occupancy) stood at 0.0675. ATCCAGCA: the binding signal (normalized occupancy) stood at 0.079. In the case of CTGTAACC it was 0.0725; in that of CGACCCCG, 0.0694. On to AAGACCCA, for which the binding signal (normalized occupancy) is 0.0693.

Consider TCCGGCAA, for which the binding signal (normalized occupancy) is 0.0695. CATCAGCG: the binding signal (normalized occupancy) was found to be 0.0771.
